# According to ChEMBL document CHEMBL5606460, “ASAP - DENV-2 NS2B-NS3 protease fluorescence single point” (2024):
# About 110 (5.5%) of roughly 2,000 compounds showed an effect of 50% or more. The list shows a part of the results.
# Target: Genome polyprotein (dengue virus type 2) (UniProt P29990)
# [1] = Thailand/16681/1984, Concentration 25.0 uM, Number of replicates 1.0
compound,measurement,setting,value
CCCCCC(=O)N[C@H](C(=O)NCc1cccc(CN)c1)c1ccc(OCc2ccccc2)cc1,inhibition,"Thailand/16681/1984, Concentration 49.5 uM, Number of replicates 2.0, Standard deviation 0.6286197397778024 %",-3.44%
same,inhibition,"Thailand/16681/1984, Concentration 99.01 uM, Number of replicates 2.0, Standard deviation 10.030102962525104 %",65.8%
same,inhibition,"Thailand/16681/1984, Concentration 198.0 uM, Number of replicates 2.0, Standard deviation 0.2962336766184579 %",98.7%
Cc1cc(CO)c2cccc(NC(=O)[C@@H](N)c3ccsc3)c2n1,inhibition,"Thailand/16681/1984, Concentration 49.95 uM, Number of replicates 2.0, Standard deviation 0.5925041052888173 %",7.24%
same,inhibition,"Thailand/16681/1984, Concentration 99.9 uM, Number of replicates 2.0, Standard deviation 1.8362903107997446 %",13.9%
C[C@H]1CCC[C@H](C)N1CCNC(=O)C1CCN(c2ccc(C=O)cc2)CC1,inhibition,[1],12.4%
Cc1c(C2CCNCC2)cnn1Cc1nnc(-c2ccccc2)o1,inhibition,"Thailand/16681/1984, Concentration 49.5 uM, Number of replicates 2.0, Standard deviation 2.3622904402078886 %",-2.18%
same,inhibition,"Thailand/16681/1984, Concentration 99.01 uM, Number of replicates 2.0, Standard deviation 1.8884466143634908 %",-1.86%
same,inhibition,"Thailand/16681/1984, Concentration 198.0 uM, Number of replicates 2.0, Standard deviation 1.0159128732525171 %",-0.491%
Cc1cc(CO)c2cccc(Cc3ccccc3C(=O)NCc3ccc(S(N)(=O)=O)cc3)c2n1,inhibition,"Thailand/16681/1984, Concentration 49.95 uM, Number of replicates 2.0, Standard deviation 1.5695359944911405 %",4.94%
same,inhibition,"Thailand/16681/1984, Concentration 99.9 uM, Number of replicates 2.0, Standard deviation 2.135114838489864 %",9.8%
C[C@@H](Cc1c[nH]c2ccccc12)N1CC[C@H](c2c[nH]c3ccccc23)C1,inhibition,"Thailand/16681/1984, Concentration 49.5 uM, Number of replicates 2.0, Standard deviation 1.5325996765679513 %",4.08%
same,inhibition,"Thailand/16681/1984, Concentration 99.01 uM, Number of replicates 2.0, Standard deviation 1.612806815158123 %",8%
same,inhibition,"Thailand/16681/1984, Concentration 198.0 uM, Number of replicates 2.0, Standard deviation 0.01571639122231834 %",12.5%
Cc1cc(CO)c2cccc(Cc3ccccc3NC(=O)C[C@H]3CCCN3)c2n1,inhibition,"Thailand/16681/1984, Concentration 49.95 uM, Number of replicates 2.0, Standard deviation 2.3110961437297597 %",-1.74%
same,inhibition,"Thailand/16681/1984, Concentration 99.9 uM, Number of replicates 1.0",-1.01%
O=Cc1ccc(N2CCC(C(=O)N3CCC[C@H](C(F)(F)F)C3)CC2)cc1,inhibition,[1],17.3%
CC(C)(CC(=O)Nc1cccc(CN)c1)NC(=O)OCc1ccccc1,inhibition,"Thailand/16681/1984, Concentration 49.5 uM, Number of replicates 2.0, Standard deviation 0.39081272196345046 %",-3.14%
same,inhibition,"Thailand/16681/1984, Concentration 99.01 uM, Number of replicates 2.0, Standard deviation 0.20295410290675317 %",-2.7%
same,inhibition,"Thailand/16681/1984, Concentration 198.0 uM, Number of replicates 2.0, Standard deviation 0.7497565258938735 %",-1.21%
Cc1cc(CO)c2cccc(Cc3cccc(NC(=O)CCC4CCNCC4)c3)c2n1,inhibition,"Thailand/16681/1984, Concentration 49.95 uM, Number of replicates 2.0, Standard deviation 1.9905342893580933 %",36.1%
same,inhibition,"Thailand/16681/1984, Concentration 99.9 uM, Number of replicates 2.0, Standard deviation 0.13016565259146895 %",90.2%
CCn1ncc(-c2nn(C)cc2NC(=O)c2ccccc2C(F)(F)F)c1F,inhibition,"Thailand/16681/1984, Concentration 49.5 uM, Number of replicates 2.0, Standard deviation 3.2320563661670154 %",5.06%
same,inhibition,"Thailand/16681/1984, Concentration 99.01 uM, Number of replicates 2.0, Standard deviation 0.128068931171749 %",2.66%
same,inhibition,"Thailand/16681/1984, Concentration 198.0 uM, Number of replicates 2.0, Standard deviation 1.8993686119068767 %",1.53%
CCn1ccnc(N2CC[C@@H](Cc3ccncc3)C2)c1=O,inhibition,"Thailand/16681/1984, Concentration 50.0 uM, Number of replicates 2.0, Standard deviation 1.0302824092471092 %",6.85%
same,inhibition,"Thailand/16681/1984, Concentration 100.0 uM, Number of replicates 2.0, Standard deviation 1.35955887792332 %",14.8%
same,inhibition,"Thailand/16681/1984, Concentration 200.0 uM, Number of replicates 2.0, Standard deviation 1.3214608242677766 %",28.2%
COc1cccc(CNC(=O)C2CCN(c3ccc(C=O)cc3)CC2)c1OC,inhibition,[1],11%
Cc1cc(CO)c2cccc(Cc3ccccc3C(=O)NCC(N)=O)c2n1,inhibition,"Thailand/16681/1984, Concentration 49.95 uM, Number of replicates 2.0, Standard deviation 0.5253345885233084 %",1.79%
same,inhibition,"Thailand/16681/1984, Concentration 99.9 uM, Number of replicates 2.0, Standard deviation 0.6122918820772879 %",9.88%
O=Cc1ccc(N2CCC(C(=O)Nc3ccc(Br)c([N+](=O)[O-])c3)CC2)cc1,inhibition,[1],17.8%
O=Cc1ccc(N2CCC(C(=O)NCCc3ccccc3[N+](=O)[O-])CC2)cc1,inhibition,[1],15.7%
O=Cc1ccc(N2CCC(C(=O)Nc3cc(Cl)c(Br)cn3)CC2)cc1,inhibition,[1],11.8%
Cc1nc([C@H]2CCCNC2)[nH]c1C(=O)Nc1ccccn1,inhibition,"Thailand/16681/1984, Concentration 49.5 uM, Number of replicates 2.0, Standard deviation 0.26437200784337433 %",-5.23%
same,inhibition,"Thailand/16681/1984, Concentration 99.01 uM, Number of replicates 2.0, Standard deviation 0.1513742839369389 %",-5.21%
same,inhibition,"Thailand/16681/1984, Concentration 198.0 uM, Number of replicates 2.0, Standard deviation 0.5479319585272123 %",-5.55%
C[C@@H](CC(C)(C)c1ccccc1)NC(=O)C1CCN(c2ccc(C=O)cc2)CC1,inhibition,[1],14.6%
O=Cc1ccc(N2CCC(C(=O)N(Cc3ccccc3)[C@H]3CCS(=O)(=O)C3)CC2)cc1,inhibition,[1],14%
CSCC[C@H](NC(=O)OC(C)(C)C)C(=O)N1CCC[C@H]1C(=O)Nc1ccc2c(c1)B(O)OC2,inhibition,"Thailand/16681/1984, Concentration 49.5 uM, Number of replicates 2.0, Standard deviation 4.107399373855346 %",-1.99%
same,inhibition,"Thailand/16681/1984, Concentration 99.01 uM, Number of replicates 2.0, Standard deviation 4.409196434477242 %",-1.45%
same,inhibition,"Thailand/16681/1984, Concentration 198.0 uM, Number of replicates 2.0, Standard deviation 4.1412500367053555 %",-1.2%
Cc1cc(Br)c(Cl)cc1NC(=O)C1CCN(c2ccc(C=O)cc2)CC1,inhibition,[1],12.9%
